Source: the supplement of paper PMC3334620
In all, about 33,000 sequences were measured (“E-score (-0.5 to 0.5)”: median about -0.012, highest 2% from about 0.29 on). The list shows a part of the results.

Biological target: T1, Ybr033w (UniProt P38073)
T1 sequence: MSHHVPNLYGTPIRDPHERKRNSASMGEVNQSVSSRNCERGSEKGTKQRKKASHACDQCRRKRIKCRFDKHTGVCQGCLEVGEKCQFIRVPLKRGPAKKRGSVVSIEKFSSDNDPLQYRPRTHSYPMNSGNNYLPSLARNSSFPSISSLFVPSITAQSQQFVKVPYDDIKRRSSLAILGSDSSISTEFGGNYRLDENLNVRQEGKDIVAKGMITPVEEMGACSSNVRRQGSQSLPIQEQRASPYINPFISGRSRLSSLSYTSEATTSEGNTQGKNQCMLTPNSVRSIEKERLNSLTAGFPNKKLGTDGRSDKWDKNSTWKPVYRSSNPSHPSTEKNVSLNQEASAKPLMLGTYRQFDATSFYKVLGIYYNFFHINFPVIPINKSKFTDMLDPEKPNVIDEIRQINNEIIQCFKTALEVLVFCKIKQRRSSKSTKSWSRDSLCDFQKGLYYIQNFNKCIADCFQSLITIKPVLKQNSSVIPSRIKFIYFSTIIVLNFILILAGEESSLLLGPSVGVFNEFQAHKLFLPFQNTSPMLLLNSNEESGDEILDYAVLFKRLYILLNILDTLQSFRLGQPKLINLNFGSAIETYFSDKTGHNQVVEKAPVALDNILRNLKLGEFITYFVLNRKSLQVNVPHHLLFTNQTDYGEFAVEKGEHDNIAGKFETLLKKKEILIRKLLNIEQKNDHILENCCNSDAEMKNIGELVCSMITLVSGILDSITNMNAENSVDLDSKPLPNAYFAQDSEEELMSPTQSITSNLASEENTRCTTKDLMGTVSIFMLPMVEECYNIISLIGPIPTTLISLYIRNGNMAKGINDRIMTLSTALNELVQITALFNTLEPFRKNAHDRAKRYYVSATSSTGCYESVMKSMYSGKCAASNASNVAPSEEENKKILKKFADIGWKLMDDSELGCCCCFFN
Experiment: PBM E-score (8-mer binding enrichment) (E-score (-0.5 to 0.5)); higher = stronger / more preferred TF binding; most listed sequences are background and not binding sites
Conditions: protein concentration: 200 nM; construct: GST-full length
In short: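 Detection of bound protein used fluorescent anti-GST, with scans normalised by masliner. The proteins were GST-tagged yeast transcription factors applied at about 100-200 nM to universal all-10-mer Agilent arrays made double-stranded by primer extension. Each ungapped eight-base word, pooled with its reverse complement, was scored with an E-score from the Universal PBM Analysis Suite.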

Sequence	PBM E-score
CTGAGAGC	-0.319
ACTATAAC	-0.00798
CGAACTAC	0.00541
ACGTAGAC	-0.243
GCCGACGA	-0.112
CGATTCGC	-0.00036
AAGTGTTG	0.243
AACCAATA	0.244
CCCCTCCG	-0.245
TACAGTCA	0.0593
AACGAACC	0.186
CCAGTTGC	-0.152
TGCCCCCA	-0.265
TGAGAGCA	-0.149
ACAGCGAA	0.0602
ATCATTAA	0.313
CGTGGCTA	-0.221
CATCAGCA	0.0619
ACCGTTCG	-0.0246
CATTGGGA	-0.0448
AATCAATA	0.334
GATCCATC	-0.146
CGCTCTGA	-0.0956
ACGAAGAC	-0.177
CCCCGGTC	-0.253

Sequence	PBM E-score
ATTTGAAC	0.243
CCCGATTC	-0.00238
AACAAAGT	0.233
ATAAATCC	0.324
ACACTGAC	-0.182
CTTCGTCA	0.124
CGATACAC	0.0422
TACGCCAA	-0.106
AAAGGGCG	-0.0478
CCCGCCAC	-0.0185
CGCCGAGA	-0.153
AATATATG	0.204
ACACGGGC	-0.0889
CGTCAGCA	-0.0493
AGTACTCC	-0.0939
GATCTAAC	0.0567
AACAGTCT	-0.123
AATTTTCT	0.145
CGCCTTTA	0.0429
CAATTATA	0.28
GCTTGTGA	-0.108
CCAGTCTA	-0.172
CGGTAGTA	-0.0551
ACGGGTGC	-0.0113
GCTGCCTA	-0.162

Sequence	PBM E-score
AAATCTAC	0.233
ACCTGTCA	-0.148
CACCTATG	0.0127
CATGTTCC	0.0191
CTGCTCTA	0.0563
ATAGATGG	-0.0391
GCGTGCTA	-0.252
CGGCACGA	-0.0127
ACACCTAG	-0.00194
CAAGAGGC	-0.144
ACTTAACG	-0.104
CACGCTGC	-0.195
CCTTCGAC	-0.134
GATCTCTA	0.0118
AGGTCCAC	-0.291
AAAGCGGT	0.0159
ATGTTCGC	0.00613
AAATCTGT	0.131
CAGTGTTC	0.143
AGCCCAAG	-0.135
CCACTGCG	-0.00412
ATCTCGTC	-0.0606
AAAATAGT	0.225
ACAAGCGA	0.0103
GAGCGGCC	-0.139

Sequence	PBM E-score
CCTGATAC	0.108
CGGAGAAG	-0.166
CTTACGGA	-0.0917
CCCACAAA	0.0286
AAATAGTG	0.292
AACTCTCA	0.121
CTCCTGGC	0.0146
AGTAAGAT	0.138
GACTGGAA	0.0267
CAGTGGGA	-0.0737
CATCAAAC	0.131
GGGTTGGA	-0.0783
ACAGACCT	0.00939
GATCTACA	0.0898
CAAAGGTC	-0.191
AAAATTCA	0.359
ACGGTTGA	0.0715
AGTACCCG	-0.00154
CCAGTCGA	-0.153
AATCGGAT	0.103
AGTCTTCG	-0.0758
GGGAACGA	-0.0809
CCCTGTCA	-0.253
AATGCAAT	0.0527
CGAACCAG	-0.0159

Sequence	PBM E-score
GGTTGTTA	0.0806
TCTACCAA	0.156
ACCCTGGA	-0.243
AGGGCAGA	-0.196
ATCGAGCG	-0.089
CATTGCGC	-0.0267
AATTCCCT	-0.00587
GGCACCAC	-0.264
TAAGTATA	0.273
GCGAGTAA	0.115
ATCACCGA	0.0578
TCCCCAGA	-0.202
ATAGACCA	0.0473
CACTAGTC	-0.0769
TCAGAACA	0.0743
AAGGAAGG	-0.0051
GCTGTCAA	-0.0307
GTGCACTA	-0.0587
CGGTAAGA	-0.0702
AAGTGAGT	-0.0751
ACCAGTGC	-0.266
CCCACGGG	-0.331
AACTGTGC	0.00985
CAAGCTCC	-0.251
ACGCCCAA	-0.0629

Sequence	PBM E-score
CGGCTGGA	-0.0587
AGTAATAC	0.222
GGCGCAAC	-0.0758
AGTGAATA	0.123
ACCTCTAG	-0.16
AAAGTAAC	0.23
CGACAGTA	-0.149
AGGCGCCC	-0.246
ATATTGCC	0.0911
AACACACC	0.197
AGTACATC	0.109
ACAAAGTA	0.3
GTATACCA	-0.139
AAACACTA	0.193
AAAAGGGA	-0.138
CGGCTAAA	0.0957
GACGCGTC	-0.185
CCTAACGA	-0.0133
AACATGCG	0.0191
CTCCCCGC	-0.105
AGGAAGTA	0.165
AAAAAGAT	0.219
AGGATGCG	-0.0573
GTTCCGTA	0.0963
ACTAGAAG	0.0113

Sequence	PBM E-score
ATGGCACC	-0.286
CGCGTTGC	-0.0205
CTTGACCA	-0.0112
AGTTTTAC	0.171
CGGGTGCC	-0.151
GGGGGTCA	-0.399
AGAATTCG	0.103
TGTTTGAA	0.208
ACGTGGTG	-0.185
CAAGTTCC	0.00505
AGATAGAG	0.114
GAACCAGA	-0.162
GGCCCCGA	-0.256
ACTGTAAC	0.0471
CAGTTGAA	0.00266
ACGCATCA	0.106
CGGTCAAG	-0.13
AAGTAGCG	-0.142
GCGTACCC	-0.144
ACCTTTAT	0.0832
AGGAGACA	-0.0884
CTGGGTTC	-0.0107
